Reference: ChEMBL document CHEMBL1156829
Whole data set: some 5,400 compounds, median “IFI” near 2, cut for the highest 2% near 22. Some of the results follow.

Experiment: NOVARTIS: Inhibition Frequency Index (IFI) - the number of HTS assays where a compound showed > 50% inhibition/induction, expressed as a percentage of the number of assays in which the compound was tested.
Assay type: functional

Compound | IFI [%]
CCOc1ccccc1-n1c(C(C)N(CCc2ccccc2)C(=O)c2ccc(Br)cc2)nc2ccccc2c1=O (stereo not given) | 5.71
CCOC(=O)c1c(NC(=O)CSc2nnc(CNC(=O)c3ccc(C)c(C)c3)n2C2CCCCC2)sc2c1CCC2 | 2.41
Cn1c(=O)c2c(ncn2CC(O)CN2CCCC2)n(C)c1=O (stereo not given) | 4.27
CC(C)CCn1c(NCc2ccccc2)nc2c1c(=O)n(CC(N)=O)c(=O)n2C | 0
O=C(Nc1ccccc1)C1Cc2ccccc2CN1S(=O)(=O)c1ccc(F)cc1 (stereo not given) | 1.15
CCOC(=O)c1cnc2c(C)c3[nH]c(C)c(C)c3cc2c1O | 0
COc1ccc(C2CC(=O)C3=C(C2)NC(C)=C(C(=O)OC2CCCC2)C3c2ccc(F)cc2)cc1OC (stereo not given) | 8.43
Cc1cc(C)cc(NC(=O)CCCn2c3ccccc3c(=O)c3cc(C)ccc32)c1 | 0
COc1cccc(C=NNC(=O)CSc2ccccc2C)c1O | 0
CCOC(=O)c1cn(CC)c2cc(N3CCCCC3)c(F)cc2c1=O | 6.56
CCOC(=O)NN=C(C)c1ccc(C(C)=NNC(=O)OCC)cc1 | 2.17
COc1ccccc1NC(=O)CSc1nc2cccnc2n1-c1ccccc1OC | 7.69
CC(C)Cc1ccc(-c2csc(NC(=O)C3C4CCC(C4)C3C(=O)O)n2)cc1 (stereo not given) | 4.65
COc1cncc(-c2cncc(N3CCN(CCN(C)C)CC3)n2)c1 | 0
CCC(=O)NNc1cc(N2CCCC2)nc(N2CCCC2)n1 | 4.44
N=C(N)c1ccc(OCCCCCOc2ccc(C(=N)N)cc2)cc1 | 2.61
Cc1cccc(-c2ccc(NC(=O)C3CCN(Cc4cnc(C)nc4)CC3)cc2)c1 | 0
CCOc1ccc(CCNC(=O)Nc2ccc(F)cc2)cc1OCC | 0
CCCCN1Cc2ccc(C(=O)NCCN3CCOCC3)cc2N=C1c1ccc(OC)cc1 | 1.22
CC(=NNC(=S)NN)c1ccccn1 | 0
CCN(CC)c1ccc(/C=C/C23NC(=O)CCN2c2ccc(C)cc2C3(C)C)cc1 (stereo not given) | 7.69
O=C1[C@H]2Cc3c([nH]c4ccccc34)C(CCc3ccccc3)N2C(=O)CN1CCc1c[nH]c2ccccc12 (stereo not given in full) | 12.2
COCC(=O)NC(c1ccccc1)c1cc(Cl)c2cccnc2c1O (stereo not given) | 7.69
O=c1cc(C(F)(F)F)c2cc(Cl)c(O)cc2o1 | 3.6
COc1ccc(-c2noc(CNC(=O)c3cccc(I)c3)n2)cc1 | 0

Compound | IFI [%]
Oc1c(C(Nc2ccccn2)c2ccc(Br)cc2)ccc2cccnc12 (stereo not given) | 11.3
Cc1ccc(NC(=O)c2nc[nH]c2C(=O)Nc2nc3ccccc3[nH]2)c(C)c1 | 4.69
COC(=O)C1=C(C)N/C(=C\c2cc(C)n(-c3cc(C)ccc3C)c2C)C1=O | 0
O=C(Nc1ccc2oc(-c3cccc4ccccc34)nc2c1)c1ccc([N+](=O)[O-])o1 | 7.14
CN1CCN(Cc2c(O)ccc3c(=O)c(Oc4ccc(C(C)(C)C)cc4)c(C(F)(F)F)oc23)CC1 | 2.35
COC(=O)C1=C(C)N/C(=C\c2cc(C)n(-c3ccccc3C(F)(F)F)c2C)C1=O | 0
O=C(NCC1CCCO1)c1cc(S(=O)(=O)N2CCCCC2)c[nH]1 (stereo not given) | 2.38
CC[n+]1c(C=C2C=C(C)OC(C)=C2)sc2ccccc21 | 12.7
O=C(Nc1ccc(C(c2ccccc2)(c2ccccc2)c2ccc(NC(=O)c3cccc([N+](=O)[O-])c3)cc2)cc1)c1cccc([N+](=O)[O-])c1 | 0
Cc1ccc(-c2nn3c(O)c4c(nc3c2C)CCCC4)cc1 | 10.9
O=C(NNc1ccccc1F)C1CCC1 | 3.45
COC(=O)c1ccc2c(=O)n(Cc3ccc4c(c3)OCO4)c(SCC(=O)n3nc(C)cc3N)nc2c1 | 0
COc1ccc(OC)c(-c2ccc(O)c(CN3CCCCCC3)c2)c1 | 1.92
CCCNC(=O)c1ccc(OC2CCN(CC(c3ccccc3)c3ccccc3)CC2)c(OC)c1 | 2.78
O=C(NCc1ccccc1)c1cnc(NCCC(c2ccccc2)c2ccccc2)nc1NCC1CCCCC1 | 3.88
Nc1ccc(-c2nc3cc(-c4ccc5[nH]c(-c6ccc(N)cc6)nc5c4)ccc3[nH]2)cc1 | 27.3
CCOC(=O)c1cc(-c2ccccc2)n(CCC(=O)Nc2ccccc2N2CCN(C)CC2)c1C | 2.94
CCC1CCCCN1C(=O)c1cc(-c2ccccc2OC)on1 (stereo not given) | 0
CCCn1c(=N)c(C(=O)NC(C)c2ccccc2)cc2c(=O)n3cccc(C)c3nc21 (stereo not given) | 0
O=C(Nc1ccc(-n2cnnn2)cc1)C1CCN(Cc2ccc(OC(F)F)cc2)CC1 | 0
CCc1ccccc1NC(=O)C1c2ccccc2C(=O)N(CC(C)C)C1c1cccs1 (stereo not given) | 3.03
COC(=O)C1CCN(C(=O)COC(c2ccccc2)c2cccnc2Cl)CC1 (stereo not given) | 1.94
COc1ccccc1N1CCN(Cc2cc(C(C)C)c(C)cc2O)CC1 | 3.12
CCOc1ccc2nc(C)cc(Nc3ccc(Br)cc3)c2c1 | 5.56
OC(CN1CCOCC1)Cn1c2ccc(Br)cc2c2cc(Br)ccc21 (stereo not given) | 0
